# In PMC4336329 (PLoS ONE, 2015):
# Among all 310,000 compounds or so, about 14,000 (4.5%) showed an effect of 50% or more. The effect is printed as a negative number. This is one part of the list.
# Molecular target: human ether-à-go-go-related gene (hERG) potassium channel (human, UniProt Q12809)
# Test: primary screen, population patch clamp on CHO cells stably expressing hERG
# 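Further: peak tail current of the secondary pulse compared with the same well before compound.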
# Sequence of human ether-à-go-go-related gene (hERG) potassium channel (Q12809 whole entry, looked up): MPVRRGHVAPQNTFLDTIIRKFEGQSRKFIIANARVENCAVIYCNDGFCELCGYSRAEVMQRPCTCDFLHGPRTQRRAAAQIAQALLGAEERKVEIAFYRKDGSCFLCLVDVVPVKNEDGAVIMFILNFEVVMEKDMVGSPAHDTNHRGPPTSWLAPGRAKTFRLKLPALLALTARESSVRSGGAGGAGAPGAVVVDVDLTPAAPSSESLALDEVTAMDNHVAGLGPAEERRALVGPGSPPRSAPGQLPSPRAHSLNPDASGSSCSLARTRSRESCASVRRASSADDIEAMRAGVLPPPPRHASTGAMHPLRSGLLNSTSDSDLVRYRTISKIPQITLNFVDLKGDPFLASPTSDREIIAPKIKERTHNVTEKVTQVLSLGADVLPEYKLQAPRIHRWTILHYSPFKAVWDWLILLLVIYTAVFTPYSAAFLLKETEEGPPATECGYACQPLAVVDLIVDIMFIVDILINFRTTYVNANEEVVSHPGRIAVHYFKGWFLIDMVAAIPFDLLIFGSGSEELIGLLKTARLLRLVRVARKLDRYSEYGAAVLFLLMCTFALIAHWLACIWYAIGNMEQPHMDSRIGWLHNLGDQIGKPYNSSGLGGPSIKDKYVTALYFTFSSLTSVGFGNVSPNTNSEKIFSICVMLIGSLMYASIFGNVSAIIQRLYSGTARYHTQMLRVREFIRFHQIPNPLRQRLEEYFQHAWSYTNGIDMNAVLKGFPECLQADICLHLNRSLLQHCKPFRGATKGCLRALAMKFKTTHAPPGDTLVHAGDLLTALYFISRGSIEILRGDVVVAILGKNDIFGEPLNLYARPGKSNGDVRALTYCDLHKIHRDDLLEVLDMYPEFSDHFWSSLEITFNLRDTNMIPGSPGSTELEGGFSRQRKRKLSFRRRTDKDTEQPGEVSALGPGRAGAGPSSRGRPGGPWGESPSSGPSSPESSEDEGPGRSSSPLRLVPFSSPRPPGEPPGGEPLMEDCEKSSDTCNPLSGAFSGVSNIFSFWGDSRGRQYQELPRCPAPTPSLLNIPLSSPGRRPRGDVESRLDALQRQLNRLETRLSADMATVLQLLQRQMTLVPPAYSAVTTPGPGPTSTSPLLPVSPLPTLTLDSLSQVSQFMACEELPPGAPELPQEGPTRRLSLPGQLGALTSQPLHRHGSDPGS
row,SMILES,"hERG current change (%, negative = inhibition) at 10uM [%]"
1,COc1ccc(Cn2c(-c3ccc(Cl)cc3)c[n+]3ccccc23)cc1.[Br-],-29
2,Cn1c(=O)cc(OCC(=O)NCCCN2CCN(c3ccccc3F)CC2)c2ccccc21,-45.4
3,CCOc1nc(OCC)nc(N2CCC(C)CC2)n1,-14.6
4,CCCCN(C(=O)C1CCC1)c1c(N)n(CC(C)C)c(=O)[nH]c1=O,1.74
5,O=S(=O)(CCCc1ccccc1)c1ncn[nH]1,12.5
6,O=C(COc1ncnc2c1cnn2-c1ccccc1)Nc1ccc(S(=O)(=O)N2CCCCC2)cc1,-3.63
7,CCCCCCCCCCOC(=O)Cn1c(COc2ccc(C)cc2)[n+](C)c2ccccc21.[Cl-],-74.9
8,CC1CCCN(C(c2ccccc2)c2sc3ncnn3c2O)C1 (stereo not drawn),9.19
9,O=C(Nc1nnc(C(F)(F)F)s1)c1ccc(N2C(=O)C3C4C=CC(C4)C3C2=O)cc1 (stereo not drawn),5.74
10,O=C(CSc1nnc(NC(=O)c2ccccc2F)s1)NCC1CCCO1 (stereo not drawn),4.91
11,COc1ccc(-n2c(=S)[nH]c3cc(C(=O)N4CCN(c5ccccc5)CC4)ccc3c2=O)c(OC)c1,16.3
12,CCOc1ccc(NC(=O)CN(C)C(=O)CCCOc2ccc(Cl)c(C)c2)cc1OCC,16.2
13,CC(OC(=O)c1cccc(-n2cnnn2)c1)C(=O)Nc1ccc(N(C)C)cc1 (stereo not drawn),6.86
14,N#CC1=C(N)Oc2n[nH]c(-c3ccccc3)c2C1c1ccncc1 (stereo not drawn),21.3
15,COc1ccc(/C=c2\s/c(=C/C(=O)c3ccc(C)cc3)[nH]c2=O)cc1OC,20.8
16,CCOC(=O)c1nnc(-c2ccccc2)o1,-3.35
17,O=C(Nc1ccc(C(=O)N2CCCC2)cc1)c1ccccc1Br,19.8
18,CCN1C(=O)N(CC)C2C1N(C(C)=O)C(=O)N2C(C)=O (stereo not drawn),-6.42
19,CC1(C)CC(N=C2C([N+](=O)[O-])=CC=C3C2=NC2(CCCCC2)N3O)CC(C)(C)N1,9.59

row,SMILES,"hERG current change (%, negative = inhibition) at 10uM [%]"
1,COC(=O)c1sc2nc(C)nc(SCC(=O)Nc3sccc3C(N)=O)c2c1C,2.33
2,COc1ccc(NC(=O)CCc2ccccc2)cc1S(=O)(=O)N1CCOCC1,-0.588
3,CCN1C(=O)/C(=C2\SC(=S)N(NC(=O)c3ccccc3O)C2=O)c2ccccc21,4.56
4,O=C1NCCCC2c3c(cc(Br)c(O)c3Br)OC12N1CCOCC1 (stereo not drawn),-11.7
5,COc1cc2c(cc1OC)C(c1ccc(SC)cc1)CC(=O)N2 (stereo not drawn),6.96
6,Cc1c(C)c(C)c(S(=O)(=O)Nc2ccc3[nH]c(=O)[nH]c3c2)c(C)c1C,22.1
7,COc1ccc(Cl)cc1CN1C(=O)NC2(CCCCCC2)C1=O,8.55
8,COc1ccc(C(=O)N2CCN(c3ncccn3)CC2)cc1[N+](=O)[O-],-2.35
9,O=[N+]([O-])c1cc(S(=O)(=O)N2CCCCCC2)ccc1F,5.94
10,O=S(=O)(Nc1cccnc1)c1ccc(Cl)cc1,9.57
11,COc1cccc(N2CCN(C(=O)CN(c3ccc(C)cc3)S(=O)(=O)c3c(C)n[nH]c3C)CC2)c1,-11.8
12,O=C(CSc1nc(-c2ccc(F)cc2)cc(C(F)(F)F)n1)NCCN1CCOCC1,-3.59
13,COCCNc1oc(COc2cccc(C)c2)nc1C#N,-14.3
14,Cc1cnc(C(=O)NC(C)CCc2ccccc2)cn1 (stereo not drawn),24
15,COc1ccc(NC(=S)N2CCC(NC(=O)C3CCCCC3)CC2)cc1,16.7
16,O=C(CCc1nc2ccccc2c(=O)[nH]1)Nc1ccccc1N1CCCC1,-6.19
17,COc1ccccc1C(=O)NCCCn1cc(Br)c(C)n1,-13.5
18,CCCOc1ccc(Cl)cc1Nc1nc(NCCO)nc(N2CCCC2)n1,19.7
19,O=C(CCC1CCCC1)NNC(=O)c1cc2ccccc2cc1O,-0.202

row,SMILES,"hERG current change (%, negative = inhibition) at 10uM [%]"
1,NNC(=O)c1n[nH]c2c1CC(C1CCCCC1)CC2 (stereo not drawn),10.8
2,CCOC(=O)c1ccc(S(=O)(=O)N2CCN(c3ccccn3)CC2)cc1,8.95
3,CC1CCCCC1NC(=O)C1CCC(CNS(=O)(=O)c2ccccc2)CC1 (stereo not drawn),11.8
4,S=C(NCc1ccco1)Nc1ccccc1,15.1
5,COc1ccc(OC)c(NC(=O)CNC(=O)Cn2cnc3sc(C)cc3c2=O)c1,5.14
6,Cc1cccc(N2CCN(C(=O)CCCn3c(=S)[nH]c4cc5c(cc4c3=O)OCO5)CC2)c1C,12
7,O=C(O)C(Cc1c[nH]c2ccccc12)N1Cc2ccccc2C1=O (stereo not drawn),9.24
8,Clc1nc(-c2n[nH]nc2Cl)n[nH]1,0.0636
9,NS(=O)(=O)OCc1ccc(C(F)(F)F)cc1,1.9
10,Cc1cccc(NC(=S)N2CCCC2)c1,11.1
11,CC(=O)c1cnc(SCCN2C(=O)c3ccccc3C2=O)nc1C,-2.37
12,COc1cccc(-c2nnc(NC(=O)c3ccc4ncsc4c3)o2)c1,-8.13
13,O=C(COC(=O)c1c(F)cccc1F)Nc1ccccc1OC(F)F,17.3
14,O=C(COc1c(Cl)cccc1Cl)Nc1ccccc1N1CCCC1,1.77
15,Cc1ccc(S(=O)(=O)N(C)C)cc1NC(=O)/C=C/c1cccs1,-8.78
16,O=C(Nc1ccccc1N1CCCCC1)c1ncoc1-c1ccc(F)cc1,5.73
17,O=c1[nH]c(=O)n(Cc2ccco2)c(O)c1C=NC1CC1,9.35
18,COc1ccccc1CNC(=O)c1nn(C)c2c1CS(=O)(=O)c1ccccc1-2,7.21
19,CC(C)N(Cc1ccccc1)C(=O)Cn1c(=O)cnc2ccccc21,-24.6
